# Paper PMC4336329 (PLoS ONE, 2015)
# About 2,200 (0.71%) of roughly 310,000 compounds showed an effect of 50% or more. Effects have a minus sign here. Some of the results follow.
# Molecular target: human ether-à-go-go-related gene (hERG) potassium channel (human, UniProt Q12809)
# Assay: primary screen, population patch clamp on CHO cells stably expressing hERG
# Sequence of human ether-à-go-go-related gene (hERG) potassium channel (Q12809 whole entry, looked up): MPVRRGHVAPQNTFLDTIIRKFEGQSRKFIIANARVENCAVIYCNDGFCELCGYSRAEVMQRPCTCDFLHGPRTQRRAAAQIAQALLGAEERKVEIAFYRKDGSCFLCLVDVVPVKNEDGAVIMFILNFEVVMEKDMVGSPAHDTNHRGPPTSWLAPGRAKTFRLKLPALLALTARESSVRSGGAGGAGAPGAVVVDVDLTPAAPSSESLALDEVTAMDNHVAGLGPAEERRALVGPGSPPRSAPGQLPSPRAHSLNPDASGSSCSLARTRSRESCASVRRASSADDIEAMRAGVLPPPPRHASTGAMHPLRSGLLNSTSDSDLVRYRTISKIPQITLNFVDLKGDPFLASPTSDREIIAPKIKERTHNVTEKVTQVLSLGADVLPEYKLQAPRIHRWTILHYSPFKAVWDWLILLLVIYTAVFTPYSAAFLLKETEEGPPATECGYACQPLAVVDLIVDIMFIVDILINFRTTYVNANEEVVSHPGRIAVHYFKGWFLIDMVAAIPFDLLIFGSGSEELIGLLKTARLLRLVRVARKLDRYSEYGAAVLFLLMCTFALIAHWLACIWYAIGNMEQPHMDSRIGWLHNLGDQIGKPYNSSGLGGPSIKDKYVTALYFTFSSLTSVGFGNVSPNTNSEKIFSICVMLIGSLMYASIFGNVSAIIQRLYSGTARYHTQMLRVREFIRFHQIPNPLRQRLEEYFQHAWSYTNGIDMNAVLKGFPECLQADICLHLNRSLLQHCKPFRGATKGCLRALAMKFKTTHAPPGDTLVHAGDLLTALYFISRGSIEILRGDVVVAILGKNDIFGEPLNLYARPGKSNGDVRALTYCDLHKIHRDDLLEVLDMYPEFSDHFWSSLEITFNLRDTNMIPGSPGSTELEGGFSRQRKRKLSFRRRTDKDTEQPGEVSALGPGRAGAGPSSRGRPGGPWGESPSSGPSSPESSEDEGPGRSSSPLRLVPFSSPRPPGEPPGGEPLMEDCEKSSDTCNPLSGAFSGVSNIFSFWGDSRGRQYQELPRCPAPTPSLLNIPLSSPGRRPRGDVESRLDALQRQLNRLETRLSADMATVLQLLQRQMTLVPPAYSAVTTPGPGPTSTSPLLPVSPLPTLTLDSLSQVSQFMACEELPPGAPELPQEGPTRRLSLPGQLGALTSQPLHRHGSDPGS
row,Structure (SMILES),"hERG current change (%, negative = inhibition) at 1uM"
1,COc1ccc(Cc2nnc(NC(=O)c3ccc(C)cc3)s2)cc1OC,12.5%
2,Oc1c(N=NC(=S)Nc2ccccc2F)c2ccccc2n1Cc1ccccc1Cl,11.5%
3,COc1cc(C(=O)O)nc2ccccc12,10.4%
4,Cc1cc(C)cc(NC(=O)c2ccc(NC(=O)C3C4CC5OC(=O)C3C5C4)cc2)c1 (centres unmarked),3.07%
5,COc1ccc(CCN2CC(C(=O)N(C)C3CCOCC3)CCC2=O)cc1 (centres unmarked),12.1%
6,CC(C)c1ccc(N(CC(=O)NCCSCc2ccco2)S(C)(=O)=O)cc1,7%
7,COc1ccc(-c2csc3ncn(-c4ccc(C)cc4)c(=O)c23)cc1OC,17.6%
8,Cc1sc2nc(CSc3ccc([N+](=O)[O-])cc3)[nH]c(=O)c2c1C,10.5%
9,CN1C[C@@H]2C(c3ccccc3)C3(c4cccnc4)CC2(C3)[C@H]1c1ccccc1 (some centres unmarked),-3.6%
10,CCNc1nc(NCC)nc(OCCNS(=O)(=O)c2cc(C)ccc2C)n1,7.43%
11,Cc1cc(C)nc(NCCO)n1.Cl,7.36%
12,CNS(=O)(=O)c1cc(S(=O)(=O)NC)c2cccc3c2c1NC3=O,11.1%
13,CCCCn1c(N)c(N(CCOC)C(=O)c2cc3c(s2)CCCCC3)c(=O)[nH]c1=O,11.3%
14,O=[N+]([O-])c1ccc(Cl)c(S(=O)(=O)NCC2CCCO2)c1 (centres unmarked),6.29%
15,CSCCC(=O)N1CCCC(N2CCN(c3cccc(C(F)(F)F)c3)CC2)C1 (centres unmarked),-2.34%
16,CCCCCCCCCCOC(=O)Cn1c(COc2cccc(C)c2)[n+](C)c2ccccc21.[Cl-],-43.9%
17,CCc1ccc(NC(=O)C2=CC(c3ccc(OC)c(OC)c3)=NS(=O)(=O)N2C)cc1,4.48%
18,CCCOc1ccc(C2NC(=O)NC2=O)cc1 (centres unmarked),12.5%
19,COc1ccc(-c2cc(C(F)F)n3ncc(C(=O)N4CCN(C(=O)c5ccco5)CC4)c3n2)cc1,9.02%

row,Structure (SMILES),"hERG current change (%, negative = inhibition) at 1uM"
1,COc1cccc(/C=C2\SC(=S)N(CCC(=O)Nc3ccc(O)cc3)C2=O)c1,1.91%
2,CN(CC1CCCO1)S(=O)(=O)c1ccc(C(=O)Nc2nc(-c3ccccn3)cs2)cc1 (centres unmarked),9.09%
3,Cc1ccc2[nH]c(=O)c(CN(C(=O)c3cccs3)c3ccccc3)cc2c1,13.2%
4,Nc1ncncc1-c1ccc([N+](=O)[O-])cc1,12%
5,O=C(c1ccc(Cl)cc1)N1CCC(O)(CSc2ccc(Cl)cc2)CC1,8.67%
6,COc1c(S(=O)(=O)N2CCN(C(=O)c3ccco3)CC2)ccc(Cl)c1Cl,7.64%
7,CC(C)CN(CC(C)C)c1nnc(N)s1,10.2%
8,CNc1nc(N/N=C/c2ccc([N+](=O)[O-])cc2)nc(Nc2ccccc2)n1.Cl,10.5%
9,C[n+]1cn(CC(O)COCc2ccccc2)c2ccccc21.[I-] (centres unmarked),15.2%
10,O=C(CCN1C(=O)C2C3CC(C(Br)C3Br)C2C1=O)OCC(=O)c1ccccc1 (centres unmarked),2.76%
11,Cc1c(CC(=O)NCCCCCC(=O)O)c(=O)oc2c(C)c3oc4c(c3cc12)CCCC4,17.6%
12,Cc1ccn2cc(CCNC(=O)Cc3cccs3)nc2c1,5.14%
13,COc1ccc(C2CN(C)CC2C(=O)c2ccc(F)cc2)cc1Cl (centres unmarked),-28.2%
14,CC1CCN(C(=O)c2ccc(N3C(=O)C4CCC(C)CC4C3=O)cc2)CC1 (centres unmarked),7.55%
15,Cc1c(Cl)cnn1CC(=O)NC1C(=O)N2C(C(=O)O)=C(CSc3nnnn3C)CSC12 (centres unmarked),13.9%
16,COc1ccc(Cl)cc1NC(=O)CN(C)C(=O)Cn1cnc2c1c(=O)n(C)c(=O)n2C,4.09%
17,COc1ccccc1-c1cnn2c(NC3CCCC3)cc(C)nc12,18.8%
18,O=C(Nc1cc(S(=O)(=O)N2CCOCC2)ccc1N1CCOCC1)c1ccccc1F,10.6%
19,CN(C)C=O.O=C(Nc1cccc(S(=O)(=O)NC2=NCCCCC2)c1)c1cc(-c2ccco2)nc2ccccc12,19%

row,Structure (SMILES),"hERG current change (%, negative = inhibition) at 1uM"
1,CC(C)C(C(=O)Nc1ccccc1F)N1C(=O)c2ccccc2C1=O (centres unmarked),10.9%
2,CCN(CC)CCN(C(=O)C1=COCCO1)c1nc2cc(C)cc(C)c2s1.Cl,-36.7%
3,Cc1cc(S(=O)(=O)N2CCN(c3ccccc3C)CC2)ccc1F,7.86%
4,Cc1c(NC(=O)CN2CCCC(C)C2)ccc2nsnc12 (centres unmarked),19.4%
5,Cn1c(=O)n(CC#N)c2ccccc21,18%
6,C/C(=N\Nc1ncc(Cl)cc1Cl)c1ccc(C#N)cc1,0.293%
7,CCOC(=O)c1c(S(=O)(=O)NCc2ccc(OC)cc2)c(C)n(C)c1C,6.48%
8,CN(C)Cc1c(O)ccc2ccccc12,9.8%
9,COc1ccc2nc(NC(=O)NC3CCCCC3)sc2c1,13.7%
10,Cn1c(SCC(=O)NC2CCCC2)nnc1-c1ccccn1,13.5%
11,O=C(O)c1ccc(CNC(=O)c2ccccc2NC(=O)c2ccc([N+](=O)[O-])cc2)cc1,15.8%
12,CCc1ccccc1NC(=O)C1CC(c2ccc(F)cc2)=NO1 (centres unmarked),14%
13,COc1cc(C2/C(=C(\O)c3cc(C)ccc3C)C(=O)C(=O)N2CCN(C)C)ccc1O (centres unmarked),-3.5%
14,N#CC1=C(N)NC(SCC(=O)Nc2ccccc2)=C(C#N)C12CCCC2,9.93%
15,COc1ccccc1NCCC(=O)OCC(=O)NC1CCCC(C)C1C (centres unmarked),10.9%
16,CCN=C1NN=C(c2cc(C)n(Cc3ccco3)c2C)CS1,12.5%
17,Cc1nc2ccccc2nc1N/N=C/c1ccc(O)cc1O,6.03%
18,COC(=O)c1cc(C(C)=O)n2ccccc12,-2.71%
